The source of these data is ChEMBL document CHEMBL4888484, “Replenishing the malaria drug discovery pipeline: Screening and hit evaluation of the MMV Hit Generation Library 1 (HGL1) against asexual blood stage Plasmodium falciparum ,using a nano luciferase reporter read-out” (2022).

Each structure is given as a SMILES string. The whole screen tested about 150,000 compounds, of which about 540 (0.36%) showed an effect of 50% or more. Some of the results follow.

The test system of this test is Plasmodium falciparum. Nature of the test: Primary screen in NF54 nanoGlo assay, in single point, at 2uM, 72h; a lower Z score goes with more inhibition. In kind it is functional, Erythrocyte. To be noted: timepoint 72 hour.
Consider `CCc1nc(-c2ccc(C)c(S(=O)(=O)N3CCC(C(=O)N[C@@H](C)CC)CC3)c2)no1`, for which the “% Inhibition” value is on record as -11% and the Z score came to 1.39.

With `O=C(C[C@H]1Cn2ncc(-c3ccccc3)c2NC1=O)NC1CCCC1`, the “% Inhibition” value is recorded as -10% and the Z score is given as 0.88.

Take `C[C@H]1CN(C)c2ccccc2CN1C(=O)NCC1CS(=O)(=O)c2ccccc21` (stereo partly drawn): the “% Inhibition” value is -16% and the Z score worked out at 2.1.

Turning to `C[C@@H](Cc1ccco1)NC(=O)NC1CCCC1`, the “% Inhibition” value is reported as -3% and the Z score stood at 0.25.

Consider `Cc1ccc2c(c1)c(C)c1n2C[C@H]2CO[C@]1(C)O2`, for which the “% Inhibition” value is on record as -13% and the Z score turned out to be 1.68.

For `CC[C@H](NS(=O)(=O)N1CCOCC1)c1nc(C)c[nH]1`, the “% Inhibition” value is reported as -5% and the Z score is 0.92.

For the compound `CCNc1nc(N)c(C(=O)Nc2cc(C)no2)s1`, the “% Inhibition” value is reported as -8% and the Z score stood at 1.06.

In the case of `COc1cc(C(=O)N2CCN(C(=O)N3CCCC3)CC2)cc(OC)c1Br`, the “% Inhibition” value is recorded as 19% and the Z score is on record as -2.38.

Take `C[C@H](NC(=O)CC1CCCCC1)C(=O)Nc1ncccc1Cl`: the “% Inhibition” value is given as -2% and the Z score is recorded as 0.3.

For the compound `Cn1c(CN2CCOC[C@@]23CCOC3)nnc1C1CC1`, the “% Inhibition” value was 31% and the Z score is -1.4.

As for `CN(C)C(=O)CN(C)S(=O)(=O)CC1CCCCC1`, the “% Inhibition” value was 1% and the Z score is given as -0.14.

With `Cc1cccc(S(=O)(=O)Nc2[nH]nc(Nc3ccc(F)c(C)c3)c2C#N)c1`, the “% Inhibition” value was -6% and the Z score is 0.83.

`CC1(C)CC(=O)N(Cc2cncn2Cc2ccccc2)C1`: the “% Inhibition” value is recorded as -8% and the Z score turned out to be 0.99.

For the compound `C[C@]1(Cc2nnn[nH]2)CC1(Cl)Cl`, the “% Inhibition” value is on record as -5% and the Z score came to 0.62.

In the case of `CC(C)C(=O)N1CCN(c2nc3ccccc3c3nnc(-c4ccccc4F)n23)CC1`, the “% Inhibition” value is 8% and the Z score is listed as -0.91.

As to `Fc1ccc(C2CCC(N[C@H](c3ccc(F)cc3)c3ncc[nH]3)CC2)cc1` (stereo partly drawn), the “% Inhibition” value is given as 18% and the Z score is recorded as -3.43.

Take `Cc1cnc(C(=O)N2CCC[C@H](n3c(C)cnc3-c3ccccc3)C2)cn1`: the “% Inhibition” value is 3% and the Z score is given as -0.39.

Turning to `Cc1nc(C2CC2)ccc1C(=O)N(C)[C@H]1CCN(C(C)C)C1`, the “% Inhibition” value is -8% and the Z score is 1.07.

`Cc1ccc(OCCOCn2c(C)cc(=O)[nH]c2=O)cc1`: the “% Inhibition” value is -35% and the Z score is listed as 4.06.

As for `Cc1noc(C)c1N(C)C(=O)Nc1cccc(COC(C)C)c1C`, the “% Inhibition” value is reported as -2% and the Z score came out at 0.22.

In the case of `Cc1nn(C)cc1C(=O)NCCC(c1ccccc1)c1ccccc1`, the “% Inhibition” value is reported as -5% and the Z score is listed as 1.02.

Consider `Cc1cc(C)c(S(=O)(=O)Nc2ccccc2CCc2nc3ccccc3n2C)cc1C`, for which the “% Inhibition” value is recorded as -21% and the Z score is reported as 2.5.

Take `CC(C)(C)C1OCCCC1CNc1nccnc1C#N` (stereo not drawn): the “% Inhibition” value came out at 3% and the Z score was -0.52.

Regarding `C[C@H](O)Cc1cn(C2CCN(C(=O)c3ccc4sccc4c3)CC2)nn1`, the “% Inhibition” value was -10% and the Z score is on record as 1.37.

For `Cc1cc(C(=O)N[C@@H](C)C(C)(F)F)on1`, the “% Inhibition” value amounted to 2% and the Z score is -0.2.

For `CCn1ccnc1CNC(=O)c1ccc(S(=O)(=O)NC[C@@H](C)O)cc1`, the “% Inhibition” value is reported as -18% and the Z score is on record as 2.11.

Turning to `CCc1cccnc1-c1noc(C[C@H]2CNCCS2(=O)=O)n1`, the “% Inhibition” value was -14% and the Z score is 2.75.

As to `Cc1cc(C)n(-c2ccc(C(=O)N3CCC[C@H](c4[nH]ncc4-c4cccc(F)c4)C3)cc2)n1`, the “% Inhibition” value is listed as -13% and the Z score was found to be 1.71.

For the compound `O=C(Nc1ccc2c(c1)OCCCO2)c1cccc2ccccc12`, the “% Inhibition” value is recorded as -16% and the Z score was 2.44.

As to `COc1ccc(Cc2n[nH]c(C[C@H]3CCCOC3)n2)cc1OC`, the “% Inhibition” value worked out at 7% and the Z score is -1.41.

For the compound `Cc1nnnn1CCC(=O)NC(Cc1ccncc1)[C@H]1C[C@@H](O)C1` (stereo partly drawn), the “% Inhibition” value is -13% and the Z score was determined as 1.49.

Turning to `CCc1cc(=O)n(Cc2cccnc2)c(N2CCOCC2)n1`, the “% Inhibition” value is on record as -1% and the Z score turned out to be 0.11.

As to `CCOc1ccc(OCc2n[nH]c(CN3CCCC3=O)n2)cc1`, the “% Inhibition” value is -4% and the Z score is recorded as 0.85.

On to `COc1ccc(S(=O)(=O)N2CC[C@H](S(=O)(=O)Cc3ccco3)C2)cc1Cl`, for which the “% Inhibition” value came to 1% and the Z score was -0.16.

Turning to `O=C(NCCC1=CCCCCC1)N1CC(S(=O)(=O)N2CCNCC2)C1`, the “% Inhibition” value came out at 2% and the Z score is -0.25.

Turning to `CC(C)CC1OCCCC1NC(=O)C1CCCO1` (stereo not drawn), the “% Inhibition” value is -16% and the Z score is listed as 1.41.

For `CC(NCC(C)(O)c1cnn(C)c1)c1ccc(N2CCCC2=O)cc1` (stereo not drawn), the “% Inhibition” value is listed as -9% and the Z score was found to be 0.87.

As for `O=C(Nc1cccn2c(C3CCC3)nnc12)c1ccc2c(c1)OCO2`, the “% Inhibition” value is given as -1% and the Z score is 0.11.

As for `COc1cc(OC)c(NC(=O)CC(C)=O)cc1Cl`, the “% Inhibition” value is 7% and the Z score is -1.36.

Regarding `CNc1ccccc1-c1nc2cc3ccccc3cc2n(C)c1=O`, the “% Inhibition” value is on record as 2% and the Z score is recorded as -0.42.

Turning to `Cc1cnc(C2CCN(C(=O)CCS(=O)(=O)c3ccccc3)CC2)n1[C@H](C)CO`, the “% Inhibition” value was -7% and the Z score was 1.2.

For the compound `COCCn1cncc1Cn1ccnc1-c1ccc2nonc2c1`, the “% Inhibition” value was -9% and the Z score was 1.88.

For the compound `CC(=O)c1csc(NC(=O)c2ccc3ncsc3c2)n1`, the “% Inhibition” value is on record as -6% and the Z score is 0.88.

`O=C(O)c1nccnc1NCCCC1CCCC1`: the “% Inhibition” value is -1% and the Z score was 0.15.

As a reminder, the % Inhibition is the change of the read-out against control, counted positive when it falls.
